# From the supplement of paper PMC10441789
# Some of the results follow. Antibody binding of pooled human sera (four to six donors per pool; dilution not stated) to peptides of the Trypanosoma cruzi antigen TSSA on microarrays. Quantile-normalised fluorescence in arbitrary units, mean of duplicate arrays; higher = more binding. No active / inactive call. The uninfected pools are read here as the healthy donors of the same country. The strongest signals lie near the top of the scale (about 60,000).
# Key:
# Assay in all cases: antibody binding signal (normalised fluorescence) (arbitrary fluorescence units); higher = stronger serum antibody binding to peptide
# [1] = test system: pooled sera of chronic Chagas disease patients, Argentina
# Description: (§1)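 Microarray of 15-residue peptides over residues 30-55 of Trypanosoma cruzi TSSAII, each with 1 to 10 substitutions at naturally variable positions, probed with one serum pool per country.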
# [2] = test system: pooled sera of chronic Chagas disease patients, Bolivia
# Description: as §1
# [3] = test system: pooled sera of chronic Chagas disease patients, Brazil
# Description: as §1
# [4] = test system: pooled sera of chronic Chagas disease patients, Colombia
# Description: as §1
# [5] = test system: pooled sera of chronic Chagas disease patients, Mexico
# Description: as §1
# [6] = test system: pooled sera of chronic Chagas disease patients, USA
# Description: as §1
# [7] = test system: pooled sera of uninfected people, Argentina
# Description: as §1
# [8] = test system: pooled sera of uninfected people, Bolivia
# Description: as §1
# [9] = test system: pooled sera of uninfected people, Brazil
# Description: as §1
# [10] = test system: pooled sera of uninfected people, Colombia
# Description: as §1
# [11] = test system: pooled sera of uninfected people, Mexico
# Description: as §1
# [12] = test system: pooled sera of uninfected people, USA
# Description: as §1
Sequence,antibody binding signal [1],antibody binding signal [2],antibody binding signal [3],antibody binding signal [4],antibody binding signal [5],antibody binding signal [6],antibody binding signal [7],antibody binding signal [8],antibody binding signal [9],antibody binding signal [10],antibody binding signal [11],antibody binding signal [12]
SGTEKKPAAGGAPSP,3130,339,4200,7720,2300,2420,213,1050,565,157,350,1190
KEKKTAAGGTPSPPG,194,296,184,3250,218,1550,97.9,84.9,224,182,73.3,120
DKKTATGGAPSQPGA,991,516,767,2780,760,615,376,210,123,112,543,224
GTDNKPATGEAPSQP,45800,41100,45500,1400,245,36500,779,935,437,152,347,142
TDKKTAAGGTPSPPG,1570,224,178,10500,424,1800,82.5,103,1010,334,228,129
GKDKKTATGETPSPP,1630,606,1050,3270,3090,6370,192,118,104,118,80.1,213
STPPSGKEKKPAAGE,24200,4470,2550,513,31800,798,1030,1050,128,622,107,342
GKEKKAATGGAPSQS,3090,207,501,3870,3800,2950,223,112,102,244,84.8,134
KDKKPAAGEAPSPPG,212,209,8140,147,227,11700,122,97.3,93.3,83.4,77.4,76.9
TPPSGTDNKAATGGA,49600,42500,48200,2350,17600,11700,1470,702,1640,275,283,342
ISTPPSGTEKKPATG,43900,5310,41000,682,33800,11500,1370,1480,300,158,191,621
KENKTATGEAPSQPG,15600,21800,41800,697,475,20700,213,119,247,142,184,135
KDKKAAAGETPSPSG,163,191,534,227,165,753,122,87.7,92.5,98.2,90,305
ENKAATGEAPSQPGA,29900,44700,47200,227,233,31600,268,139,192,194,194,144
GKEKKPATGGAPSPP,4650,1010,1590,4700,6620,4780,244,443,95.3,96.9,105,261
SGTDKKTAAGETPSP,182,415,1030,1860,413,2200,153,245,244,441,292,539
GTDNKTATGGTPSPP,340,885,27400,626,439,439,260,707,1810,517,260,152
PPSGKENKTAAGEAP,6650,8280,5630,1390,1690,5620,2570,1790,333,870,370,331
GTENKTATGGAPSQS,25300,857,1060,1140,1880,946,413,492,261,212,490,156

Sequence,antibody binding signal [1],antibody binding signal [2],antibody binding signal [3],antibody binding signal [4],antibody binding signal [5],antibody binding signal [6],antibody binding signal [7],antibody binding signal [8],antibody binding signal [9],antibody binding signal [10],antibody binding signal [11],antibody binding signal [12]
GTDKKAATGGTPSPS,387,338,339,2340,706,974,209,170,610,779,155,121
KDNKPATGGTPSQSG,350,402,606,339,287,335,360,426,252,186,300,146
GTEKKPATGGTPSPP,1940,730,656,2460,1480,1110,280,1310,1410,212,322,1170
TPPSGKDNKAATGGA,5600,263,1510,478,46000,2050,466,474,144,151,109,220
KKTAAGGTPSPPGAS,279,297,238,3880,331,1610,201,132,364,315,78.6,292
GTDNKTAAGETPSQS,166,380,32200,263,282,255,146,636,1400,155,156,116
KENKAATGEAPSPPG,24000,20500,36900,218,194,25900,179,224,167,135,89.8,144
PSGKDKKAATGETPS,2590,722,3510,2050,2140,9020,340,282,153,258,88.4,131
TPPSGTEKKAAAGGA,35000,5100,25400,3290,13000,2370,1580,297,825,156,206,291
TENKAATGEAPSQSG,32300,46200,39600,190,218,27700,299,165,154,167,210,225
TDNKAATGETPSPPG,2970,5240,21100,137,148,12400,108,357,237,143,169,1970
TSSTPPSGKDKKAAT,24200,923,903,194,40200,718,153,357,112,185,96.2,127
TPPSGKEKKTAAGGA,4630,771,433,3730,22600,1130,440,224,115,161,120,152
DKKAAAGETPSPPGA,445,213,1730,265,281,1600,145,196,169,117,172,292
DNKPAAGGTPSPSGA,206,722,626,1710,253,240,238,560,1320,668,427,145
GTENKPAAGGTPSQS,45300,3520,5690,1260,2050,963,467,2130,1280,393,584,215
KDKKAAAGGAPSQSG,227,183,164,1490,633,213,128,76,125,86.3,79.7,108
EKKTATGGTPSPSGA,634,595,441,4170,608,1590,331,758,412,642,160,795
